# According to the supplement of paper PMC8728848:
# This is one part of the list.
# B1: AAA (Anguilla anguilla), Q7SIC1 (protein)
# chain: VIPEGYTQENVAVRGKATQSAQLRGEHAANSEASNAIDGNRDSNFYHGSCTHSSGQANPWWRVDLLQVYTITSVTITNRGDCCGERISGAEINIGQHLASNGVNNPECSVIGSMATGETKTFHCPAPMIGRYVVTYLPTSESLHLCEVEVNVDKPAAA
# Tests used:
# Assay in all cases: glycan array binding signal (z-score within array); higher = stronger binding
# Conditions in all cases: glycan notation: IUPAC condensed, linker removed
# [1] = molecular target: Gal(a1-2)Gal
# How it was run: (§1)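 Glycan array binding is given as a within-array Z-score, which can be read as non-binding when negative. The arrays, 3228 of them, came from the Consortium for Functional Glycomics database and were retained only where the protein sequence was available. Z-scores were averaged across arrays of the same protein sequence at different concentrations or buffers and across linkers.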
# [2] = molecular target: Gal(a1-3)Gal
# How it was run: as §1
# [3] = molecular target: Gal(a1-3)Gal(b1-3)Glc
# How it was run: as §1
# [4] = molecular target: Gal(a1-3)Gal(b1-3)GlcNAc
# How it was run: as §1
# [5] = molecular target: Gal(a1-3)Gal(b1-3)GlcNAc(b1-2)Man
# How it was run: as §1
# [6] = molecular target: Gal(a1-3)Gal(b1-3)GlcNAc(b1-2)Man(a1-3)[Gal(a1-3)Gal(b1-3)GlcNAc(b1-2)Man(a1-6)]Man(b1-4)GlcNAc(b1-4)GlcNAc
# How it was run: as §1
# [7] = molecular target: Gal(a1-3)Gal(b1-3)GlcNAc(b1-3)GalNAc
# How it was run: as §1
# [8] = molecular target: Gal(a1-3)Gal(b1-3)GlcNAc(b1-6)GalNAc
# How it was run: as §1
# [9] = molecular target: Gal(a1-3)Gal(b1-3)[Fuc(a1-4)]GlcNAc(b1-2)Man(a1-3)[Gal(a1-3)Gal(b1-3)[Fuc(a1-4)]GlcNAc(b1-2)Man(a1-6)]Man(b1-4)GlcNAc(b1-4)GlcNAc
# How it was run: as §1
# [10] = molecular target: Gal(a1-3)Gal(b1-4)Glc
# How it was run: as §1
# [11] = molecular target: Gal(a1-3)Gal(b1-4)GlcNAc
# How it was run: as §1
# [12] = molecular target: Gal(a1-3)Gal(b1-4)GlcNAc(b1-2)Man
# How it was run: as §1
# [13] = molecular target: Gal(a1-3)Gal(b1-4)GlcNAc(b1-2)Man(a1-3)[Gal(a1-3)Gal(b1-4)GlcNAc(b1-2)Man(a1-6)]Man(b1-4)GlcNAc(b1-4)GlcNAc
# How it was run: as §1
# [14] = molecular target: Gal(a1-3)Gal(b1-4)GlcNAc(b1-3)GalNAc
# How it was run: as §1
# [15] = molecular target: Gal(a1-3)Gal(b1-4)GlcNAc(b1-6)GalNAc
# How it was run: as §1
# [16] = molecular target: Gal(a1-3)Gal(b1-4)[Fuc(a1-3)]GalNAc
# How it was run: as §1
# [17] = molecular target: Gal(a1-3)Gal(b1-4)[Fuc(a1-3)]GlcNAc
# How it was run: as §1
# [18] = molecular target: Gal(a1-3)Gal(b1-4)[Fuc(a1-3)]GlcNAc(b1-2)Man(a1-3)[Gal(a1-3)Gal(b1-4)[Fuc(a1-3)]GlcNAc(b1-2)Man(a1-6)]Man(b1-4)GlcNAc(b1-4)GlcNAc
# How it was run: as §1
# [19] = molecular target: Gal(a1-3)GalNAc
# How it was run: as §1
# [20] = molecular target: Gal(a1-3)GlcNAc
# How it was run: as §1
# [21] = molecular target: Gal(a1-3)[Gal(a1-4)]Gal(b1-4)GlcNAc
# How it was run: as §1
# [22] = molecular target: Gal(a1-4)Gal(b1-3)GlcNAc(b1-2)Man(a1-3)[Gal(a1-4)Gal(b1-3)GlcNAc(b1-2)Man(a1-6)]Man(b1-4)GlcNAc(b1-4)GlcNAc
# How it was run: as §1
# [23] = molecular target: Gal(a1-4)Gal(b1-4)Gal
# How it was run: as §1
# [24] = molecular target: Gal(a1-4)Gal(b1-4)GalNAc
# How it was run: as §1
# [25] = molecular target: Gal(a1-4)Gal(b1-4)Glc
# How it was run: as §1
# [26] = molecular target: Gal(a1-4)Gal(b1-4)GlcNAc
# How it was run: as §1
# [27] = molecular target: Gal(a1-4)Gal(b1-4)GlcNAc(b1-2)Man(a1-3)[Gal(a1-4)Gal(b1-4)GlcNAc(b1-2)Man(a1-6)]Man(b1-4)GlcNAc(b1-4)GlcNAc
# How it was run: as §1
# [28] = molecular target: Gal(a1-4)Gal(b1-4)GlcNAc(b1-3)Gal(b1-4)Glc
# How it was run: as §1
# [29] = molecular target: Gal(a1-4)GlcNAc
# How it was run: as §1
# [30] = molecular target: Gal(a1-6)Glc
# How it was run: as §1
# [31] = molecular target: Gal(b1-2)Gal
# How it was run: as §1
# [32] = molecular target: Gal(b1-3)Gal
# How it was run: as §1
# [33] = molecular target: Gal(b1-3)Gal(b1-4)GlcNAc
# How it was run: as §1
# [34] = molecular target: Gal(b1-3)GalNAc
# How it was run: as §1
# [35] = molecular target: Gal(b1-3)GalNAc(a1-3)[Fuc(a1-2)]Gal(b1-4)Glc
# How it was run: as §1
# [36] = molecular target: Gal(b1-3)GalNAc(a1-3)[Fuc(a1-2)]Gal(b1-4)GlcNAc
# How it was run: as §1
# [37] = molecular target: Gal(b1-3)GalNAc(b1-3)Gal
# How it was run: as §1
# [38] = molecular target: Gal(b1-3)GalNAc(b1-3)Gal(a1-4)Gal(b1-4)Glc
# How it was run: as §1
# [39] = molecular target: Gal(b1-3)GalNAc(b1-3)Gal(b1-4)Glc
# How it was run: as §1
# [40] = molecular target: Gal(b1-3)GalNAc(b1-3)Gal(b1-4)GlcNAc
# How it was run: as §1
# [41] = molecular target: Gal(b1-3)GalNAc(b1-4)Gal(b1-4)Glc
# How it was run: as §1
# [42] = molecular target: Gal(b1-3)GalNAc(b1-4)[Neu5Ac(a2-3)]Gal(b1-4)Glc
# How it was run: as §1
# [43] = molecular target: Gal(b1-3)GlcNAc
# How it was run: as §1
# [44] = molecular target: Gal(b1-3)GlcNAc(a1-3)Gal(b1-4)GlcNAc
# How it was run: as §1
# [45] = molecular target: Gal(b1-3)GlcNAc(a1-6)Gal(b1-4)GlcNAc
# How it was run: as §1
binder,measurement,setting,value
B1,glycan array binding signal (z-score),[1],-0.201
same,glycan array binding signal (z-score),[2],-0.093
same,glycan array binding signal (z-score),[3],0.187
same,glycan array binding signal (z-score),[4],-0.21
same,glycan array binding signal (z-score),[5],-0.254
same,glycan array binding signal (z-score),[6],0.122
same,glycan array binding signal (z-score),[7],-0.262
same,glycan array binding signal (z-score),[8],-0.214
same,glycan array binding signal (z-score),[9],-0.042
same,glycan array binding signal (z-score),[10],-0.184
same,glycan array binding signal (z-score),[11],-0.169
same,glycan array binding signal (z-score),[12],-0.144
same,glycan array binding signal (z-score),[13],-0.099
same,glycan array binding signal (z-score),[14],-0.229
same,glycan array binding signal (z-score),[15],-0.152
same,glycan array binding signal (z-score),[16],-0.484
same,glycan array binding signal (z-score),[17],-0.078
same,glycan array binding signal (z-score),[18],-0.535
same,glycan array binding signal (z-score),[19],-0.046
same,glycan array binding signal (z-score),[20],-0.416
same,glycan array binding signal (z-score),[21],-0.047
same,glycan array binding signal (z-score),[22],-0.227
same,glycan array binding signal (z-score),[23],-0.282
same,glycan array binding signal (z-score),[24],-0.239
same,glycan array binding signal (z-score),[25],-0.079
same,glycan array binding signal (z-score),[26],-0.15
same,glycan array binding signal (z-score),[27],-0.144
same,glycan array binding signal (z-score),[28],-0.163
same,glycan array binding signal (z-score),[29],0.094
same,glycan array binding signal (z-score),[30],-0.097
same,glycan array binding signal (z-score),[31],-0.184
same,glycan array binding signal (z-score),[32],-0.043
same,glycan array binding signal (z-score),[33],-0.117
same,glycan array binding signal (z-score),[34],0.365
same,glycan array binding signal (z-score),[35],-0.279
same,glycan array binding signal (z-score),[36],0.026
same,glycan array binding signal (z-score),[37],-0.155
same,glycan array binding signal (z-score),[38],-0.051
same,glycan array binding signal (z-score),[39],0.237
same,glycan array binding signal (z-score),[40],-0.758
same,glycan array binding signal (z-score),[41],-0.284
same,glycan array binding signal (z-score),[42],-0.122
same,glycan array binding signal (z-score),[43],-0.187
same,glycan array binding signal (z-score),[44],-0.27
same,glycan array binding signal (z-score),[45],-0.192
